Experimental data published in the supplement of paper PMC3334620.
Whole data set: some 33,000 sequences, median “E-score (-0.5 to 0.5)” near -0.011, cut for the highest 2% near 0.28. Some of the results follow.

biological target: T1, Gcr1 (UniProt P07261); assay: PBM E-score (8-mer binding enrichment) (E-score (-0.5 to 0.5)); higher = stronger / more preferred TF binding; most listed sequences are background and not binding sites; conditions: protein concentration: 100 nM; construct: GST-full length
T1 sequence: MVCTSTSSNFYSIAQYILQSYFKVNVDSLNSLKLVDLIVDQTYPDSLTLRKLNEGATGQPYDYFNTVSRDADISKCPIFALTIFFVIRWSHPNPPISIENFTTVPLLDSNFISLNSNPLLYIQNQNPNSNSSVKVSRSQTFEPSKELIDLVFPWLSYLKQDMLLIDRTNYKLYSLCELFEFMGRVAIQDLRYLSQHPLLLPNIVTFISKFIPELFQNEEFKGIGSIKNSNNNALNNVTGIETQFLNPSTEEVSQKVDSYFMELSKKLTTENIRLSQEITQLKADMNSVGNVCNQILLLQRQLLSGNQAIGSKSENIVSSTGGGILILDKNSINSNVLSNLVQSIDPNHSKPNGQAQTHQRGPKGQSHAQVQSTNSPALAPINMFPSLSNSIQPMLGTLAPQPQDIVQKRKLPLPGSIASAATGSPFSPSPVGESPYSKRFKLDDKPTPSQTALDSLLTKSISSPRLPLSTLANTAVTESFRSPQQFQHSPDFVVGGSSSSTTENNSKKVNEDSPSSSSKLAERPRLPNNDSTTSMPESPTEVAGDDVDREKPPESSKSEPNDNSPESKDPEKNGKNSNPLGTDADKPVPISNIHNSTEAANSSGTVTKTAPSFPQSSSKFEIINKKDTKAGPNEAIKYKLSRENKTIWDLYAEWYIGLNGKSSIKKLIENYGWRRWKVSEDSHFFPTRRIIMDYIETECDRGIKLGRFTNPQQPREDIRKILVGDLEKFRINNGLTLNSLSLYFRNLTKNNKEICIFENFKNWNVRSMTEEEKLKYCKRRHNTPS
Summary of the method: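 Detection of bound protein used fluorescent anti-GST, with scans normalised by masliner. The proteins were GST-tagged yeast transcription factors applied at about 100-200 nM to universal all-10-mer Agilent arrays made double-stranded by primer extension. Each ungapped eight-base word, pooled with its reverse complement, was scored with an E-score from the Universal PBM Analysis Suite.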

In order of rising “PBM E-score” value:
1. ACGTTCGA  -0.284
2. GATAGTCA  -0.264
3. ACGGCAGG  -0.261
4. GCATGCCA  -0.255
5. AGAGTAAC  -0.248
6. AATCATAT  -0.242
7. AATGTTCG  -0.241
8. AACTCAGT  -0.21
9. CATATTCC  -0.189
10. CCGTACAG  -0.186
11. CCAGGCCA  -0.177
12. GAGCTTAC  -0.17
13. AACGCTCG  -0.168
14. GAAAGACC  -0.162
15. GAGACGAC  -0.159
16. GAACCATC  -0.157
17. TCACCTCA  -0.155
18. ATGGCCAT  -0.154
19. GTCTGGCA  -0.153
20. GAGATGAA  -0.149
21. CGACCTAC  -0.148
22. CTATTGTC  -0.141
23. CTGACCAC  -0.139
24. GCGTTAGC  -0.135
25. AAAATCTC  -0.132
26. ACGGTTCG  -0.132
27. AAATAGCT  -0.13
28. ATCTCTAG  -0.129
29. CTTGATTA  -0.125
30. GAGAGGCC  -0.124
31. ACTATACT  -0.118
32. GCCAAGAC  -0.104
33. CCCAGGGG  -0.102
34. GGGTTCAA  -0.101
35. GTTGTGAA  -0.0947
36. ACCGTAGT  -0.0942
37. AAGGCCGC  -0.0941
38. AAACGACT  -0.0932
39. GGGTGCGA  -0.0925
40. AACTACAC  -0.0872
41. TAGACAAA  -0.0792
42. CTCTCCCA  -0.0788
43. CCGCATGC  -0.0758
44. CAATCACA  -0.0744
45. CTATATCA  -0.0714
46. CCCTGACG  -0.0677
47. CTTCGAGC  -0.0646
48. CGACTCTC  -0.0599
49. CTGGGGTA  -0.0593
50. CAGGCACG  -0.0582
51. GTATATGA  -0.0566
52. ACCCGCGC  -0.0565
53. GGGTCTAA  -0.0543
54. CGCCGGGC  -0.0527
55. ATACCGTA  -0.0485
56. GCTAGAGA  -0.0437
57. AGATGAAC  -0.0418
58. AATGTTGC  -0.0406
59. AACAATCA  -0.0387
60. AATCGCCT  -0.0372
61. CTGCATAC  -0.0336
62. CGTGATGA  -0.0315
63. CAAAGGCA  -0.0313
64. CGGGGTTA  -0.0298
65. GGCCTACA  -0.0286
66. CACGCGGA  -0.028
67. CCCATTTC  -0.0272
68. GACGTTAA  -0.0271
69. CAGGTACA  -0.0209
70. AACAATGG  -0.0155
71. TGTTCAAA  -0.014
72. ATAGAGTG  -0.0126
73. CAGCATCA  -0.00923
74. TCAACTAA  -0.00686
75. GCCATTTA  -0.00671
76. AGATTGGC  -0.00448
77. CTGTGTAA  -0.00263
78. GTTGGAGA  -0.00098
79. CCGTCCCC  0.00017
80. AATTGTGT  0.00335
81. CCAAACTC  0.00455
82. ATGTACAC  0.00539
83. ACCAAGTA  0.00559
84. CGGCTCAA  0.00705
85. TATTGTAA  0.00851
86. AGAGCAGG  0.0116
87. ATAGCAAT  0.0118
88. GCTAACCA  0.0133
89. GTATGGAA  0.0155
90. TATTTTGA  0.0187
91. GATGGGGC  0.0208
92. CCCGGGGC  0.0219
93. ATGACCAG  0.0279
94. GATGGAAA  0.029
95. ATCTATAA  0.0292
96. CGGGGAAC  0.0303
97. CTGTTCGC  0.0314
98. GGTGGACA  0.04
99. CTGTTCAA  0.046
100. GTTACTAA  0.0464
101. AATAGCTA  0.0488
102. GGGGTAGA  0.049
103. AGCCCTAG  0.0495
104. CCGCCAAA  0.0502
105. CTATCATA  0.0505
106. AAAAATCA  0.052
107. TTCCCCAA  0.0531
108. CTTAGATA  0.0548
109. AAAGCATA  0.0556
110. ATACTTTA  0.0558
111. CTTTCATA  0.0601
112. ATTTACTA  0.0638
113. TCGTCCAA  0.0652
114. ATCATAGG  0.0674
115. AACTGGCA  0.0707
116. AAATTCGG  0.071
117. TATCGAGA  0.0733
118. AAAATGTA  0.0737
119. CGGTACCC  0.0751
120. AAAATCGC  0.0752
121. AAGTCGCT  0.0779
122. GTGCGCTA  0.0787
123. ATTTTTCG  0.0814
124. GGAGGCCC  0.0846
125. CCCAGCAG  0.0849
126. CCCGCTCC  0.0861
127. AAACCCAA  0.0869
128. CACTTTCC  0.0878
129. ACAAGACT  0.0934
130. ATGGGAAT  0.0953
131. ATTCGCCA  0.096
132. GTCGGGTA  0.1
133. TGTGTAAA  0.102
134. ATGAATTC  0.104
135. ACCCGAAG  0.106
136. GTGACAAC  0.108
137. ACGGGAAT  0.111
138. TACACAAA  0.112
139. TAGGGAAA  0.116
140. AACTTAGG  0.123
141. CCGGATAA  0.125
142. CACGCTTC  0.129
143. ATTGGCTG  0.13
144. CAAGTTAA  0.131
145. AAGCCTCC  0.132
146. GTTCAGGA  0.134
147. CAGGATAC  0.134
148. CTTAGGAA  0.142
149. ACGATAGG  0.149
150. CCTGTGAA  0.15
151. CAAATTAC  0.155
152. GACCAAAA  0.155
153. CCATACAA  0.157
154. CCGAAAAA  0.158
155. AACTCAAT  0.158
156. GGATTCAC  0.159
157. GCGGATAA  0.161
158. AGGTGTCA  0.162
159. TCCTCTCA  0.162
160. GCTCTTAA  0.171
161. AGGCCTCC  0.174
162. GCCCACCC  0.182
163. AAGTTGCG  0.211
164. GCGAATAC  0.219
165. GGTTGCGA  0.231
166. ATGCTAAT  0.267
167. CCACCCAG  0.273
168. GGTAGCCA  0.274
169. CATTAAAA  0.306
170. CCGGCGCC  0.317
171. GGGCTCCA  0.318
172. AAAATAGG  0.335
